Hit rate of the full screen: of about 46,000 compounds, about 60 (0.1%) were called active. About 3% were inconclusive and are not listed. Calls come from the whole dose curve; as a rule, active = well fitted inhibition curve with a large enough effect; inconclusive = small, poorly fitted or top-dose-only effect; inactive = no such curve, though single readings can be large or run the other way. Some of the results follow.
experiment: Primary qHTS assay for Inhibitors of ovarian cancer metastasis using an organotypic tumor microenvironment (TME) model.; note: nearly all actives have a fitted effect of over 65% in size;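 for activity change, negative = inhibition: plate controls were DMSO wells for no effect and tomatine positive control wells for full effect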; settings: SKOV3ip1-GFP adhesion/invasion on 3D omental model, fluorescence; series mostly up to 45.8 µM; activity change, negative = inhibition: at the top concentration
Outline: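 Adhesion/invasion was scored as fixed GFP-labeled SKOV3ip1 cell counts (488/509 nm), normalized to DMSO and tomatine controls. Cancer cells in serum-free medium, with four compound doses (0.36-46 umol/L), sat 2 hr at RT then 16 hr at 37 C on a 48 hr fibroblast/mesothelial/ECM culture.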

Activity change, negative = inhibition, inactive:
COCCCNC(=O)Cn1cnc2sc(C)c(S(=O)(=O)N3CCN(c4ccccc4OC)CC3)c2c1=O -3.98%
CCN1CCN(C(=O)c2ccc3c(c2)N(Cc2cccc(F)c2)C(=O)c2ccccc2S3)CC1 -6.29%
CCn1c2ccccc2c2cc(NC(=O)COc3ccc(C)c(C)c3)ccc21 -8.87%
CCOC(=O)c1ccc(NC(=O)CC2NCCNC2=O)cc1 (stereo unspecified) 4.34%
Cc1ccc2nc3c(cc(C(=O)NC4CCCCC4)c(=N)n3C(C)C)c(=O)n2c1 -5.45%
CCC(C)NC(=O)C1CCC(CNS(=O)(=O)c2ccc(Cl)cc2)CC1 (stereo unspecified) -9.55%
Cc1ccc(-c2ccc(=O)n(CC(=O)NCc3ccc(F)cc3)n2)cc1 -2.82%
CC(=O)NC(C)c1ccc(Oc2ccc(OC(C)C)cc2)cc1 (stereo unspecified) -9.24%
COc1ccc(-c2nc3n(n2)C(=O)CC(c2ccc(Cl)cc2)S3)cc1 (stereo unspecified) 8.25%
CC(=O)c1ccc(N2CCN(S(=O)(=O)c3ccc(-c4cc(C)no4)s3)CC2)cc1 -0.113%
COC(=O)c1c(NC(=O)COc2cc(C)ccc2C(C)C)sc2c1CCC(C)C2 (stereo unspecified) 0.418%
Cc1cccc(NC(=O)CCn2nc(-c3ccccc3)c3ccccc3c2=O)c1 -11.6%
CCOc1cc(C(=O)Nc2ccc(-c3nc4ncccc4o3)cc2C)cc(OCC)c1OCC -5.31%
CC1=C(C(=O)Nc2ccccc2C)C(c2cccnc2)n2nc(SCc3ccccc3F)nc2N1 (stereo unspecified) -9.95%
COC(=O)c1ccc(NC(=O)C2CCN(C(=O)c3ccc(F)cc3)CC2)cc1 6.47%
O=C(O)CCc1ccc(-c2ccccc2)n1CC(=O)Nc1ccccc1C(F)(F)F -5.24%
Cc1ccccc1Nc1nn2c(=O)c3ccc(C(=O)N4CCCC(C)C4)cc3nc2s1 (stereo unspecified) -2.84%
CCOc1ccc(CNS(=O)(=O)c2cc(-c3cc(C)no3)ccc2C)cc1OC 0.496%
O=C1CC(c2ccc(Cl)cc2)Sc2nc(-c3ccc(F)cc3)nn21 (stereo unspecified) 6.41%
O=C(CCc1ccccc1)NC1CC(=O)N(c2ccccc2)C1 (stereo unspecified) -3.27%
COc1cccc(OC)c1C(=O)Nc1ccc2c(c1)N(C(C)=O)CCC2 -8.56%
Cc1ccc(NC(=O)CCC(=O)N2Cc3ccccc3Oc3ncccc32)cc1 -18.3%
CCc1cnc2c(c1SCC(=O)Nc1ccc(C)cc1C)c(=O)n(C)c(=O)n2C 3.95%
CCCn1c(=O)c2sccc2n2c(CCCC(=O)Nc3cccc(CC)c3)nnc12 5.39%
COCCCNC(=O)CSc1nc(-c2ccccc2)[nH]c1-c1ccc(C)cc1 2.57%
Cn1c(=O)[nH]c2cc(-c3noc(-c4ccc(F)cc4)n3)ccc21 5.59%
COc1cccc(NC(=O)/C(C#N)=C\c2cn(Cc3ccc(Cl)cc3)c3ccccc23)c1 11.3%
Cc1ccc(Cl)cc1NC(=O)C(=O)NCCc1sc(-c2ccc(F)cc2)nc1C -0.658%
COc1ccc(CC(=O)Nc2sc3c(c2C(=O)Nc2c(C)cccc2C)CCCCC3)cc1 -10.3%
CCCCc1ccc(C(=O)N/C(=C\c2ccc(C)cc2)C(=O)NC2CCCCC2)cc1 4.14%
CCc1nc2ccc(C(=O)N3CCN(c4ccc(Cl)cc4)CC3)cc2nc1CC -3.85%
Cc1cc(C(F)F)n2nc(C(=O)Nc3ccc(F)c(Cl)c3)nc2n1 -20.1%
COc1ccc(-c2oc3c(CC=C(C)C)c(OC4O[C@H](CO)[C@@H](O)[C@H](O)[C@@H]4O)cc(O)c3c(=O)c2OC2O[C@@H](C)[C@H](O)[C@@H](O)[C@@H]2O)cc1 (stereo partly specified) -5.06%
CCCOc1ccc(C(=O)Nc2c(C(=O)c3ccc(C)cc3)oc3ccccc23)cc1 -15.6%
COc1ccc(CNC(=O)Cn2c(=O)oc3cc(S(=O)(=O)N4CCCC4)ccc32)cc1 2.15%
C[C@H](Cn1cnc2c(N)ncnc21)OCP(=O)(O)O -14.3%
O=C(CC1N=C2c3ccccc3N=C(SCc3ccccc3F)N2C1=O)NCc1cccs1 (stereo unspecified) 4.51%
Cc1cccc(CNC(=O)c2ccc(Cn3c(=O)c4cccn4c4cccnc43)cc2)c1 -0.357%
COc1cccc(Nc2nc(-c3ccccc3)c3cc(C)ccc3n2)c1 -11.7%
Cc1ccc(NC(=O)C(Cc2ccccc2)NS(=O)(=O)c2cccc3nsnc23)c(C)c1 (stereo unspecified) -6.66%
CC1CCCCN1S(=O)(=O)c1ccc2c(c1)oc(=O)n2CC(=O)Nc1ccc(Cl)cc1 (stereo unspecified) 5.7%
COc1cc(C2CC(=O)Nc3c2c(=O)nc2c(C)cccn32)cc(OC)c1OC (stereo unspecified) -27.5%
CCCCNc1cc(C(=O)O)cc(S(N)(=O)=O)c1Oc1ccccc1 -3.49%
Cc1nn2c(-c3cccc(NC(=O)c4ccc(Cl)cc4)c3)nnc2c2ccccc12 -2.11%
CCCCOCc1cc(CN2CCN(c3cccc(Cl)c3)CC2)c(O)c2ncccc12 -23.5%
COc1ccc(-n2c(-c3ccco3)nc3c(cnn3-c3ccc(C)cc3)c2=O)cc1 9.19%
CC(C)C(=O)Nc1ccc2nc(SCCOc3ccccc3)sc2c1 5.02%
CCn1c(=O)n(CC)c2cc(N3CCCCC3)c(NC(=O)Nc3cc(Cl)ccc3OC)cc21 -3.46%
COc1ccccc1NC(=O)C1=C(C)Nc2nc(SCc3cc(C)ccc3C)nn2C1c1ccccc1 (stereo unspecified) 8.05%
CC(C)Cn1c(/C=C/c2ccc(F)cc2)nc2ccccc21 -13.8%
O=C(c1cccs1)N1CCCc2cc(NS(=O)(=O)c3ccc(F)cc3)ccc21 -8.77%
O=C(CSc1nnc(CNC(=O)c2c(F)cccc2Cl)o1)Nc1cccc(F)c1 -5.11%
CCOc1ccc(NS(=O)(=O)c2ccc(NC(=O)N3CCCC3)cc2)cc1 -2.08%
O=C(Nc1ccc2nn(-c3ccccc3)nc2c1)c1ccc(-c2cccc(Cl)c2)o1 -23.4%
CCOc1ccc(C(=O)N2CCN(Cc3cc(=O)n4nc(-c5ccccc5Cl)sc4n3)CC2)cc1 4.78%
CCn1c(C)c(C)c2cc(C(=O)NCCc3ccc(C)cc3)ccc21 5.57%
O=C(c1ccc2c(=O)n(CCc3ccccc3)c(=O)[nH]c2c1)N1CCN(c2ccc(Cl)cc2)CC1 -5.85%
Cc1ccc(NC(=O)Cn2c(=O)ccc3cc(S(=O)(=O)N4CCC(C)CC4)ccc32)cc1Cl -4.54%
Cc1ccc(C)c(NC(=O)c2cc(=O)c3cc(C)cc(C)c3o2)c1 -1.11%
COc1cccc(NC(=O)CCNC(=O)Cn2ccc3ccccc3c2=O)c1 -1.77%
Cc1ccccc1CS(=O)(=O)Cc1ccc(C(=O)NCc2ccc(F)cc2)o1 2.99%
O=C1CC(c2ccc(Cl)cc2)N=C(NC(=O)c2ccccc2)N1 (stereo unspecified) 2.38%
COc1ccc(CNC(=O)C2CCN(S(=O)(=O)c3cccc4nonc34)CC2)cc1OC 3.5%
COCCNc1ncnc2c1c(-c1ccccc1)cn2-c1cccc(Cl)c1 -0.178%
CC(C)C(=O)OCc1cc(=O)n2nc(C3CCCCC3)sc2n1 5.41%
Cc1ccc(NC(=O)C2CCCN2S(=O)(=O)c2cccc3cccnc23)cc1C (stereo unspecified) -3.6%
CCN(CC)c1ccc(C2C(C(N)=O)=C(C)Nc3ncnn32)cc1 (stereo unspecified) 47.7%
CCCCNC(=O)CCc1c(C)nc2c(c(C)nn2-c2ccccc2)c1C -24.1%
CCC(C(=O)Nc1ccc(C(C)=O)cc1)n1c(C)c2cnn(-c3ccccc3)c(=O)c2c1C (stereo unspecified) -11.5%
Cn1c(=O)c2c(nc(SCC(=O)Nc3ccc(F)cc3)n2Cc2ccccc2)n(C)c1=O 0.317%
COc1ccc(NS(=O)(=O)c2ccc3[nH]c4c(c3c2)CCCCCC4)cc1 -7.66%
Cc1cccc(CS(=O)(=O)c2ncc(Cl)c(C(=O)NCc3ccccc3)n2)c1 -12.4%
COc1ccccc1N1CCN(C(CNC(=O)C(=O)NCCc2ccccc2)c2cccnc2)CC1 (stereo unspecified) 0.887%

outcome, inactive:
Cc1cc(C)c(S(=O)(=O)n2cnc(C)c2)c(C)c1
CCS(=O)(=O)CCSc1nc(-c2ccc(Br)cc2)cc(-c2ccccc2)c1C#N
N#Cc1cccc(NC(=O)C2CCN(c3ncccn3)CC2)c1
COc1ccccc1CNC(=O)CCCCn1c(=O)c2ccccc2n(CC(=O)Nc2cc(Cl)ccc2C)c1=O
COc1ccc2c(c1)c1c(c(=O)n(-c3ccccc3C)c(=O)n1CC(=O)Nc1c(C)cccc1C)n2C
COc1ccc(-c2cnc(C)o2)cc1S(=O)(=O)Nc1ccc(C)c(N(C)C)c1
COc1ccc(NC(=O)Cn2c(SCc3ccc(C)cc3)nc3cccnc32)c(OC)c1
CCc1ccc(-n2c(=O)c3c4c(sc3n(CC(=O)NC(C)CC)c2=O)CCCC4)cc1 (stereo unspecified)
CCn1c(=O)cc(SCC(=O)NCCc2ccc(OC)cc2OC)c2ccccc21
COc1ccc(NC(=O)CSC2=Nc3ccccc3C3=NC(CC(=O)NCc4ccc(F)cc4)C(=O)N23)cc1 (stereo unspecified)
CCc1ccc(-c2nn(CC(=O)NC3CCCCC3)c3c2cnc2ccc(OC)cc23)cc1
COc1ccc2c(C)c(CCC(=O)NCCc3ccc(Cl)cc3)c(=O)oc2c1
Cc1cccc(S(=O)(=O)c2cn(Cc3ccccc3)c3cc(N4CCCCC4C)c(F)cc3c2=O)c1 (stereo unspecified)
CCS(=O)(=O)N1CCc2cc(C(=O)Nc3cc(Cl)ccc3C)ccc21
COc1ccc(CCNC(=O)CCS(=O)(=O)c2ccc3c(c2)oc(=O)n3C)cc1OC
Cc1ccc(N2CCN(C(=O)c3cn(C)c4ccc(S(=O)(=O)N(C)C5CCCCC5)cc4c3=O)CC2C)cc1 (stereo unspecified)
CCOC(=O)c1c(C)[nH]c(CCC(=O)Nc2ccccc2C(=O)OC)c1C
COCCCNC(=O)CCc1c(C)nc2cc(-c3ccc(Cl)cc3)nn2c1C
CCc1ccc(NCc2cc3cc4c(cc3n(CC(=O)Nc3ccc(F)cc3)c2=O)OCCO4)cc1
Cc1ccc(NC(=O)CSc2nnc(N)s2)c(C)c1
Cn1ccnc1SCC(=O)Nc1cc(Cl)ccc1Cl
Fc1ccc(CNc2nc(-c3ccccc3)cc(C(F)(F)F)n2)cc1
Cc1ccccc1CN1CCCN(CC(=O)Nc2c(C)cccc2C)S1(=O)=O
